In PubChem BioAssay AID463173 (ICCB-Longwood Screening Facility, Harvard Medical School, 2010):
In all, about 52,000 compounds went through this assay and about 4,300 (8.3%) were called active. Rule as the data show it: active = survival mostly below about 52% (no sharp cut-off); inactive = mostly above about 56%. The list shows a part of the results.

test system: DeltatarO mutant; experiment: growth inhibition of S. aureus wild type versus tarO mutant, primary screen, teichoic acid synthesis inhibitors, RN4220, OD600 (AID 463173); conditions: OD600, 18 h, hits give low values, screened at 18.75 µg/mL (by protocol)

| SMILES | survival |
| --- | --- |
| O=C(NC1CCCc2ccccc21)c1ccc2c(c1)sc1nc(-c3ccc(F)cc3)cn12 (centres undefined) | inactive: 68% |
| CCn1c(CSc2nc(C)cc(C)n2)nnc1SCc1ccccc1 | inactive: 101% |
| CCOc1ccc(CCNC(=O)c2cc3c(=O)[nH]c4ccc(C)cc4c3s2)cc1OCC | inactive: 73% |
| CCc1ccc2c(c1)NC(c1cccs1)=NC(c1ccc(F)cc1)=N2 | inactive: 52% |
| CCc1ccccc1N(C)C(=O)Cn1cnc2sc(C)c(S(=O)(=O)N3CCN(c4ncccn4)CC3)c2c1=O | inactive: 77% |
| COc1ccc(NC(=O)Cn2c(=O)oc3cc(S(=O)(=O)N4CCC(C)CC4)ccc32)c(OC)c1 | inactive: 85% |
| Cc1ccc(NS(=O)(=O)c2cc(Br)cc3c2N(C(=O)C2CC2)CC3)cc1C | inactive: 95% |
| OCc1cc(CO)c(O)c(CCc2ccccc2)n1 | inactive: 88% |
| CCCS(=O)(=O)c1c(Nc2ccccc2C)sc(C(=O)c2ccccc2)c1N | active: 28% |
| CCOc1ccccc1CNC(=O)CCn1ccc2cc(S(=O)(=O)N3CCC(C)CC3)ccc21 | inactive: 89% |
| COC(=O)c1ccc(Cn2nnc3sc4c(c3c2=O)CCC(C)C4)cc1 (centres undefined) | inactive: 79% |
| O=C(NCc1cccc(F)c1)c1ccc(-n2cnc3cccnc32)cc1 | inactive: 97% |
| Cc1cccc(Cn2cc(C(=O)Nc3ccc(F)c(C(F)(F)F)c3)ccc2=O)c1 | inactive: 120% |
| CCCCN(CC)CCNC(=O)c1cc2c(=O)oc3ccc(C)cc3c2s1 | inactive: 105% |
| CCn1c(=O)c2cc(C(=O)NCCc3cc(OC)ccc3OC)sc2c2ccccc21 | active: 34% |
| CCc1ccc2nc(N3CCCC3)c(C#N)cc2c1 | inactive: 73% |
| Cc1cc(C)cc(-n2c(C)cc(/C=N/NC(=O)CSc3ncccn3)c2C)c1 | inactive: 106% |
| O=C(Cn1c(=O)n(-c2cccc(Cl)c2)c(=O)c2sc3ccccc3c21)N1CCCC1 | inactive: 76% |
| CCOc1ccc(C(=O)Nc2c(C(=O)Nc3ccccc3F)oc3ccccc23)cc1OCC | inactive: 46% |
| CCN(CC)CCCNC(=O)C1CCN(S(=O)(=O)CC)CC1 | inactive: 122% |
| O=S1(=O)c2ccccc2N(Cc2ccccc2)c2ccccc21 | inactive: 69% |
| CC(=O)c1ccc(NC(=O)c2c3c(nc4ccccc24)C(=O)N(C2CCCCC2)C3)cc1 | inactive: 115% |
| COC(=O)c1cc(C)nc2c1c(=O)nc(SCc1ccccc1F)n2C1CC1 | inactive: 84% |

| SMILES | survival |
| --- | --- |
| CCOC(=O)CN1C(=O)C(O)(CC(=O)c2cc(OC)ccc2OC)c2ccccc21 (centres undefined) | inactive: 184% |
| Cn1cc(S(=O)(=O)c2ccccc2)c(=O)c2cc(F)c(N3CCN(c4ccccc4)CC3)cc21 | inactive: 116% |
| Cc1cccc(-n2c(-c3ccccc3)cn3c4c(=O)[nH]c(=O)n(C)c4nc23)c1 | inactive: 145% |
| Cc1ccc(-c2cc(C(F)(F)F)n3nc(C(=O)Nc4ccc(Cl)c(C(F)(F)F)c4)cc3n2)cc1 | inactive: 77% |
| Cc1cc(C)c(Cn2c3ccccc3c3cnn(CC(=O)N4CCCCCC4)c(=O)c32)c(C)c1 | active: 9% |
| Cc1cccc(C)c1OCC(=O)Nc1nc(-c2ccc(Br)cc2)ns1 | inactive: 61% |
| Nc1cc(N)nc(SCC(=O)NCc2ccccc2)n1 | inactive: 99% |
| O=C(NCc1ccc(Cl)cc1)C(=O)Nc1ccc(Br)cc1 | inactive: 63% |
| COc1ccc(C2=NN(C(=O)CCC(=O)O)C(c3ccccc3F)C2)cc1OC (centres undefined) | inactive: 89% |
| CCc1cccc(NC(=O)Cn2c(=O)n(Cc3ccccc3)c(=O)c3c2c2cc(OC)ccc2n3C)c1 | inactive: 86% |
| CC1CCN(Cc2c(O)ccc3c(=O)c(-c4cccc(Cl)c4)c(C(F)(F)F)oc23)CC1 | inactive: 59% |
| CC(=O)c1cc2c(cc1NC(=O)c1c(C)nn(-c3ccc(C)cc3)c1-n1cccc1)OCO2 | inactive: 83% |
| COc1ccc(OCCn2cc(C(=O)C3CCCCC3)c3ccccc32)cc1 | active: 13% |
| O=C(Nc1cccc(Br)c1)N1CCC(CN2CCCCC2)CC1 | inactive: 83% |
| Cc1ccc(NC(=O)CSc2nc3ncccc3[nH]2)cc1F | inactive: 94% |
| COc1cccc(N2CCN(C(=O)c3cnn(C(C)(C)C)c3C3CCN(C(=O)OC(C)(C)C)CC3)CC2)c1 | inactive: 76% |
| O=C(c1ccc2c(c1)CCN2S(=O)(=O)c1ccccc1)N1CCN(c2ccc(F)cc2)CC1 | inactive: 50% |
| Cc1ccc(S(=O)(=O)NCCc2cn3c(C)csc3n2)cc1 | inactive: 67% |
| Cc1cccc(NC(=O)C2CCN(c3nnc(-n4c(C)ccc4C)s3)CC2)c1C | inactive: 94% |
| COc1ccc(-c2nnc(C3CCN(C(=O)c4ccccc4F)CC3)o2)cc1 | inactive: 92% |
| Cc1ccc2nc(-c3cc(NC(=O)c4ccc5c(c4)OCCO5)ccc3Cl)oc2c1 | inactive: 82% |
| COc1ccc(C2Sc3ccccc3NC3=C2C(=O)c2ccccc23)c(OC)c1OC (centres undefined) | inactive: 77% |
| COc1ccc(C(=O)n2cnnc2N)cc1 | inactive: 103% |

| SMILES | survival |
| --- | --- |
| COc1ccc(-c2onc(C)c2C)cc1S(=O)(=O)N1c2ccccc2CC1C (centres undefined) | inactive: 80% |
| CCc1ccccc1NC(=O)Cn1c(-c2nonc2N)nc2ccccc21 | inactive: 86% |
| COCc1[nH]nc2c1C1(CCC(C(C)(C)C)CC1)C(C#N)=C(N)O2 (centres undefined) | inactive: 96% |
| O=C(NCCc1csc(-c2ccc(Cl)cc2)n1)c1cccs1 | inactive: 89% |
| COC(=O)c1c(NC(=O)CCCOc2ccc(C(C)(C)C)cc2)sc2c1CCC(C)C2 (centres undefined) | active: 28% |
| COc1ccc(NC(=O)/C(C#N)=C/c2ccc(OCc3cc(=O)n4nc(C)sc4n3)cc2)cc1 | inactive: 61% |
| COC(=O)c1ccc(-n2nc(C)cc2C)cc1 | inactive: 95% |
| CC1CCN(C(=O)CSc2nnc(-c3ccccc3Cl)o2)CC1 | inactive: 104% |
| CCN(C(=O)Cn1nc(Cc2cccnc2)c2ccccc2c1=O)c1ccccc1F | inactive: 84% |
| O=S(=O)(Nc1ccc2oc3c(c2c1)CCCC3)c1cc(Cl)ccc1Cl | active: 33% |
| CCN(CC)Cn1nc(-c2ccccc2Cl)oc1=S | inactive: 77% |
| CC(C)COc1ccc(C(=O)Nc2cccc(-c3nc4ccccc4[nH]3)c2)cc1 | active: 43% |
| Cc1cc(C)cc(NC(=O)CCS(=O)(=O)c2cc3c4c(c2)CCN4C(=O)CC3)c1 | inactive: 74% |
| CCc1ccc(OC(C)C(=O)N2CCC(c3nc4ccccc4s3)CC2)cc1 (centres undefined) | active: 28% |
| O=C(NC1(C(F)(F)F)C(=O)Nc2c1c(=O)[nH]c(=O)n2CCc1ccccc1)c1ccc(Cl)cc1Cl (centres undefined) | inactive: 76% |
| COc1ccccc1-c1cc2nc(C)c(CCC(=O)Nc3ccc(Br)c(C)c3)c(C)n2n1 | inactive: 67% |
| CN(Cc1ccccc1)Cn1[nH]c(=O)ccc1=O | inactive: 110% |
| CCn1cc(C(=O)N2CCN(c3cccc(C(F)(F)F)c3)CC2)c2cc(OC)c(OC)cc2c1=O | inactive: 120% |
| CC(C)CN(CCCNC(=O)Cn1ncc2c3ccccc3n(C)c2c1=O)CC(C)C | inactive: 92% |
| COc1ccc(Cl)cc1NC(=O)CCS(=O)(=O)c1nc(-c2cccs2)cc(C(F)(F)F)n1 | inactive: 63% |
| CCOC(=O)c1ccc(NC(=O)Nc2c[nH]c(=O)[nH]c2=O)cc1 | inactive: 99% |
| Cc1ccc(CNC(=O)c2cc3c(s2)-c2ccccc2SC3)cc1 | inactive: 94% |
| CCOC(=O)c1cc(-c2ccccc2)n(CC(=O)NC(C)c2ccccc2)c1C (centres undefined) | inactive: 91% |

| SMILES | survival |
| --- | --- |
| COC(=O)c1nnn(CC(=O)NC(=O)Nc2cccc(C)c2C)c1C(=O)OC | inactive: 82% |
| CCc1nc2ccc(C(=O)N3CCN(c4ccccc4)CC3)cc2nc1CC | inactive: 113% |
| COc1ccc2c(c1)CCc1c(C(=O)Nc3ccc(F)c(Cl)c3)noc1-2 | inactive: 62% |
| CCOc1ccc(/C=C(\C#N)c2nc3ccccc3c(=O)[nH]2)cc1OC | inactive: 94% |
| O=C(CSc1nnc(-c2ccccc2)c(-c2ccccc2)n1)NC1CCCCC1 | inactive: 85% |
| CCOc1ccc(-c2nonc2NC(=O)c2oc3ccc(Br)cc3c2C)cc1 | inactive: 50% |
| CCOC(=O)N1CCc2c(sc(NCc3cccc(F)c3)c2C(=O)Nc2ccccc2OCC)C1 | inactive: 89% |
| Cc1nc(N2C(=O)c3oc4ccccc4c(=O)c3C2c2cccc(OCCC(C)C)c2)sc1C (centres undefined) | inactive: 59% |
| Cc1ccc(N2CC(NC(=O)Cc3cccs3)CC2=O)cc1C (centres undefined) | active: 25% |
| O=S(=O)(Nc1ccc(-c2ccc(N3CCCC3)nn2)cc1)c1ccc(Cl)cc1 | inactive: 102% |
| Cc1c(C(=O)OC2CCCC2)[nH]c2c1C(=O)CC(c1ccc(Cl)cc1)C2 (centres undefined) | inactive: 94% |
| COc1ccc(C(C(=O)NC2CCCC2)N(Cc2ccco2)C(=O)Cn2nc(C(F)(F)F)c3c2CCCC3)cc1 (centres undefined) | inactive: 91% |
| COc1ccc(CNc2oc(C)nc2C#N)cc1 | inactive: 88% |
| CC(=O)N1CCc2c(sc3c2c(=O)n(-c2ccccc2)c(=O)n3CC(=O)Nc2cccc(C)c2)C1 | inactive: 73% |
| CCOc1ccc(CNS(=O)(=O)c2c(C(=O)N3CCC(C)CC3)c(C)n(C)c2C)cc1OC | inactive: 81% |
| CCOc1cc(-c2nnc(SCC(=O)Nc3ccc(F)c(F)c3)nc2-c2ccc(OC)c(OCC)c2)ccc1OC | inactive: 96% |
| COc1ccc(S(=O)(=O)N(CCc2ccccc2)CC(=O)Nc2ccc(C)c(C)c2)cc1OC | inactive: 62% |
| CCC(=O)Nc1nnc(SCc2cc(=O)c3cc(C)ccc3[nH]2)s1 | inactive: 77% |
| Cc1csc(-c2cc3ccccc3oc2=O)n1 | inactive: 85% |
| O=C(Nc1cccc(-c2nc3ccccc3o2)c1)c1ccc(-c2ccc(Br)cc2)o1 | active: 39% |
